# Reference: PubChem BioAssay AID652104 (National Center for Advancing Translational Sciences (NCATS), 2013)
# Out of some 410,000 compounds screened, about 7,200 (1.8%) were called active. Inconclusive results, whose numbers are uncertain, are shown with a selection of clear calls. Calls follow the shape of the dose curve; as a rule, active = well fitted activation curve with a large enough effect; inconclusive = small, poorly fitted or top-dose-only effect, or another doubt; inactive = no such curve, though single readings can be large or run the other way. No potency is given beside an inconclusive call; the fits are too rough.
# Experiment: qHTS of TDP-43 Inhibitors; also: nearly all actives have a fitted effect of over 50% in size; as to growth rescue (activation): % of control where 0% means no effect
# Settings: TDP-43 expressing yeast growth rescue, BacTiter-Glo, 24 h; growth rescue (activation): at 46.1 µM (top of the series) unless noted
# Summary of the method: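 Cell-based yeast growth screen: TDP-43 expression induced in galactose, inoculum OD600=0.02 after raffinose pregrowth to mid-log. Read-out BacTiter-Glo luminescence at 24 hr, 30 deg C; inhibition of toxicity seen as signal increase.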
# Potency is read from the fitted curve at half-maximal effect; tags tell the direction and shape of the fitted curve.
Compound,Potency,growth rescue (activation)
O=C(c1cc2cc(Cl)ccc2[nH]1)N1CCCCC1,"inconclusive [activator, partial curve]",–
COc1ccc(NC(=O)CN(C)C(=O)c2cc3c(s2)CCCCC3)cc1,active: 28.2 µM,–
Cc1cc(Cl)c(S(=O)(=O)N2CCCC2)cc1OCC(=O)NC1CCCCC1,"inconclusive [activator, single point]",–
CCCCC/C=C/C1=CC(=O)C[C@H](c2ccc3c(c2)OCO3)C1,inactive,–
O=C(CCc1nc2ccccc2c(=O)[nH]1)Nc1cc(Cl)ccc1N1CCCCC1,inactive,–
COc1ccc(C(=O)c2sc3nc(C)cc(-c4cccs4)c3c2N)cc1,"inconclusive [activator, partial curve]",–
COC(=O)c1ccc(N=Nc2ccccc2)cc1,active: 15.8 µM,–
N#Cc1ccccc1CSc1nnc(-c2ccccc2)o1,"inconclusive [activator, partial curve]",–
CSc1n[nH]c2nc3c(c(=O)n12)C1(CCCC1)Cc1ccccc1-3,inactive,–
CCOC(=O)C1=C(Cc2ccc(Cl)cc2)C(=O)c2ccccc2C1=O,–,inconclusive: -49.6% [activator]
Cc1ccc2c(c1)N(CC(=O)N1CCCc3ccccc31)C(=O)CO2,"inconclusive [activator, single point]",–
COc1ccc(CNC(=O)CN2CCSc3ccccc32)c(OC)c1,"inconclusive [activator, single point]",–
O=C(c1cc2c(s1)CCC2)N1CCN(c2ccccc2)CC1,"inconclusive [activator, partial curve, poor fit]",–
CCN(CC)C(=O)Cn1c(SCC(=O)Nc2ccc(C)c(C)c2)nc2ccccc21,inactive,–
CC(C)(C)OC(=O)N1CCC(c2c(C(=O)NCCN3CCOCC3)cnn2-c2ccccc2)CC1,inactive,–
Cc1cc(S(=O)(=O)Nc2c(C)ccc3nsnc23)ccc1F,"inconclusive [activator, single point]",–
Cc1ccc(OCc2nnc(N)s2)cc1,inactive,–
CCC(Cc1ccccc1)NC(=O)c1csc2c1CCCCC2 (stereo not given),inactive,–
Cc1c2cnn(-c3ccccc3)c(=O)c2c(C)n1CC(=O)NCc1ccc(Cl)cc1,inactive,–
Cc1ccc(S(=O)(=O)N(C)CC(=O)NCc2ccncc2)cc1,"inconclusive [activator, partial curve]",–
CC1CCN(C(=O)CSc2nc3c(c(=O)n2C)SCC3)CC1,inactive,–
Cc1ccc(S(=O)(=O)NC(=O)COc2ccccc2C)c(C)c1,active: 17.8 µM,–
COC(=O)C(C)NC(=S)N1CCN(c2c(F)cc3c(=O)c(C(=O)O)cn(C4CC4)c3c2OC)CC1C (stereo not given),"inconclusive [activator, partial curve, poor fit]",–
CCCOc1ccccc1Cn1c(=O)oc2ccc(C)cc21,"inconclusive [activator, single point]",–
COc1cccc(C(=O)Nc2ccc3c(c2)CCCN3C(=O)c2cccs2)c1OC,"inconclusive [activator, single point]",–

Compound,Potency,growth rescue (activation)
Cc1ccc(-n2ncc3c(NCCc4ccccc4)ncnc32)cc1,"inconclusive [activator, full curve]",–
CC(C)(C)NC(=O)NC(=O)COC(=O)CCC1CCCCC1,inactive,–
CN1CCN(c2ncc3c(n2)CCN(Cc2ccccc2Cl)C3)CC1,"inconclusive [activator, partial curve]",–
COc1ccc(C(=O)Nc2ccc(Cl)c(Cl)c2)c(OC)n1,inactive,–
Cc1nc(-c2ccccc2)sc1-c1n[nH]c(=S)n1C,"inconclusive [activator, partial curve]",–
COc1ccc(CCNC(=O)Cn2c(C)c3cnn(-c4ccccc4)c(=O)c3c2C)cc1OC,inactive,–
Cc1c(CCNC(=O)c2ccc(C(F)(F)F)cc2)sc2nc(-c3ccc(F)cc3)nn12,inactive,–
CCOC(=O)C1(C)CCN1C(=O)c1ccc(-c2ccccc2)cc1 (stereo not given),"inconclusive [activator, partial curve]",–
CC(CCc1ccccc1)NC(=O)c1nnc(Cc2ccc(Cl)cc2)o1 (stereo not given),active: 22.4 µM,–
CCN(CC)C(=S)SCC(=O)Nc1cccc(C(F)(F)F)c1,active: 12.6 µM,–
CNc1cnc(-c2ccc(F)c(F)c2F)cn1,"inconclusive [activator, single point]",–
CCC(C)c1ccc(OCC(=O)Nc2cccc(C(=O)Nc3ccc(C(=O)O)cc3)c2)cc1 (stereo not given),"inconclusive [activator, single point]",–
Cc1ccc(-n2c(SCc3nc(-c4ccccc4C)no3)nnc2-c2ccncc2)cc1C,active: 31.6 µM,–
COC(=O)[C@@]12CCCCN1[C@H](c1ccc(-c3ccc4c(c3)OCO4)c(OC)c1)[C@@H]1C(=O)N(C)C(=O)[C@@H]12,active: 12.6 µM,–
COC(=O)c1c(NC(=O)c2ccc(S(=O)(=O)N3CCCCC3)cc2)sc2c1CCN(C)C2,inactive,–
N#C/C(=C\c1ccc(O)c(O)c1)C(=O)N1CCCC1,inactive,–
CC1(c2nnnn2Cc2ccccc2)CCC(=O)N1CCc1ccccc1F (stereo not given),"inconclusive [activator, partial curve]",–
CCOc1ccccc1C(=O)Nc1ccc(S(=O)(=O)Nc2cc(OC)nc(OC)n2)cc1,inactive,–
CNC(=O)c1ccc(NC(=O)c2nsc3ccccc23)cc1,"inconclusive [activator, partial curve]",–
Cc1ccc(C)n1-c1nccc(-c2cccs2)n1,"inconclusive [activator, single point]",–
Cc1ccc(NC(=O)N2CCCc3ccccc32)cc1C,"inconclusive [activator, partial curve]",–
CN(CC(=O)Nc1ccccc1Br)C(=O)COc1ccc2ccccc2c1,"inconclusive [activator, partial curve]",–
O=c1onc(-c2ccccc2)n1Cc1ccc([N+](=O)[O-])cc1,active: 8.91 µM,–
Cc1ccc(N2CC(c3nnc(Cc4ccc(F)cc4Cl)o3)CC2=O)cc1 (stereo not given),"inconclusive [activator, partial curve, poor fit]",–
CC1=C(c2ccc(Cl)cc2)S(=O)(=O)N=C1N1CCN(c2cccc(C)c2)C(C)C1 (stereo not given),inactive,–

Compound,Potency,growth rescue (activation)
Cc1cccc(NC(=O)C(=O)c2cc(C)n(-c3ccccc3)c2C)c1C,inactive,–
CC(C)(C)NC(=O)NC(=O)COC(=O)Cc1c(Cl)cccc1Cl,"inconclusive [activator, single point]",–
O=S(=O)(c1cccc(S(=O)(=O)N2CCOCC2)c1)N1CCCCCC1,inactive,–
O/N=C1\CCCc2ccc(Cl)cc21,"inconclusive [activator, partial curve]",–
CCOC(=O)c1cc(C#N)c(Oc2ccccc2)nc1-c1ccccc1,"inconclusive [activator, single point]",–
COc1ccc(-c2ccc(CN3C(C(C)C)C(=O)N(Cc4cn(CCC5OCCO5)nn4)CCS3(=O)=O)cc2)cc1OC (stereo not given),inactive,–
O=C(OCC(=O)N1N=C(c2ccc(Cl)cc2)CC1c1ccco1)c1cccnc1 (stereo not given),"inconclusive [activator, partial curve]",–
COc1cccc(N2CCN(C(=S)NCCc3ccccc3)CC2)c1,"inconclusive [activator, full curve, poor fit]",–
Cc1ccccc1NC(=S)NCc1cccs1,"inconclusive [activator, partial curve]",–
CC1CN(c2cc(=O)n(-c3ccccc3)c(=O)[nH]2)CC(C)O1 (stereo not given),"inconclusive [activator, single point]",–
O=C(c1ccc([N+](=O)[O-])o1)N1CCCCCC1,"inconclusive [activator, single point]",–
COC(=O)CCn1c(C)cc(C(=O)COc2ccccc2C(N)=O)c1C,inactive,–
CNC(=O)c1ccc(Nc2nnc(-c3ccc(C)c(S(=O)(=O)NC(C)(C)C)c3)c3ccccc23)cc1,inactive,–
Cc1ccc(NS(=O)(=O)c2cccc(C(=O)N3CCCCCC3)c2)cc1,inactive,–
O=S(=O)(Nc1ccc(Br)cc1)c1cccc2nonc12,"inconclusive [activator, partial curve]",–
CC(=O)Nc1ccc(NC(=O)C(C)OC(=O)CCCc2c[nH]c3ccccc23)cc1 (stereo not given),inactive,–
Cc1cccc(NC(=O)CSc2nc3c(c(=O)[nH]2)CN(Cc2ccc4c(c2)OCO4)CC3)c1C,inactive,–
COc1ccc(-c2csc3ncnc(N4CCN(c5ccc(OC)cc5)CC4)c23)cc1,active: 11.2 µM,–
Cc1ccc(N2C(=O)C3CCCN3C2=S)cc1Cl (stereo not given),"inconclusive [activator, partial curve]",–
CC1CN(C(=O)c2ccccc2OCc2ccccc2Cl)CC(C)O1 (stereo not given),"inconclusive [activator, partial curve]",–
COc1ccc(N2CCN(C(=O)CSCc3nc(-c4ccccc4Cl)oc3C)CC2)cc1,"inconclusive [activator, single point]",–
COc1ccc([C@H]2CC(=O)C=C(c3cccc(Cl)c3)C2)cc1,active: 17.8 µM,–
CCOC(=O)c1[nH]c(C)c(C(=O)NC(C)(C)C)c1C,inactive,–
Cc1cc(=O)oc2ccc(OCC(=O)N(Cc3ccc(F)cc3)Cc3ccco3)cc12,"inconclusive [activator, single point]",–
Cc1ccc(S(=O)(=O)Nc2nc3ccccc3nc2N2CCOCC2)cc1,"inconclusive [activator, single point]",–
